Tested on: Z138 cells
Assay: Z138 cell proliferation assay (XTT)
Type: cell-based
Settings: Homo sapiens, Z-138, 168 h, 7 day treatment, 9-point dose response starting with 10 μM, XTT read at 465 nm
Protocol: Z138 cells were seeded in a 96-well round-bottom plate and treated with varying concentration of compound. The final DMSO concentration was maintained at 0.05%. The selected compounds of present invention were screened in a 9-point dose response format starting with 10 μM and 1/3rd serial dilution. On the 4th day, cells were spun down and media was replaced while maintaining the initial compound concentration in each well. At the end of the 7th day, cells were spun down and media was aspirated. 50 µL of XTT containing media was added to the wells. The plates were read using the M3 spectrophotometer at 465 nm. GI50 values were calculated by fitting the dose response data to sigmoidal curve fitting equation using GraphPad Prism software V7.
The compounds were screened in the above mentioned assay procedures for determining IC50 and GI50 values in inhibiting PRMT5.

Row | Structure (SMILES) | GI50 [nM]
1 | N#Cc1ncc(-c2cccc(CN3CCN(C[C@H](O)CN4CCc5ccccc5C4)C3=O)n2)cn1 [Compound 55, (R)-5-(6-((3-(3-(3,4-dihydroisoquinolin-2(1H)-yl)-2-hydroxypropyl)-2-oxoimidazolidin-1-yl)methyl)pyridin-2-yl)pyrimidine-2-carbonitrile] | 100 to 300
2 | COc1ccc(-c2ccc(CN3CCN(C[C@H](O)CN4CCc5ccccc5C4)C3=O)nc2)cn1 [Compound 62, (R)-1-(3-(3,4-dihydroisoquinolin-2(1H)-yl)-2-hydroxypropyl)-3-((6′-methoxy-[3,3′-bipyridin]-6-yl)methyl)imidazolidin-2-one] | < 100
3 | O=C1N(Cc2ccc(-n3ccccc3=O)cn2)CCN1C[C@H](O)CN1CCc2ccccc2C1 [Compound 101, (R)-6′-((3-(3-(3,4-dihydroisoquinolin-2(1H)-yl)-2-hydroxypropyl)-2-oxoimidazolidin-1-yl)methyl)-2H-[1,3′-bipyridin]-2-one] | 100 to 300
4 | CC(=O)N1C2CCC1CC(c1ccc(CN3CCN(C[C@H](O)CN4CCc5ccccc5C4)C3=O)nc1)C2 (stereo partly drawn) [Compound 72, 1-((5-(8-acetyl-8-azabicyclo[3.2.1]octan-3-yl)pyridin-2-yl)methyl)-3-((R)-3-(3,4-dihydroisoquinolin-2(1H)-yl)-2-hydroxypropyl)imidazolidin-2-one] | < 100
5 | O=C1N(Cc2ccc(C3CCCOC3)cn2)CCN1C[C@H](O)CN1CCc2ccccc2C1 (stereo partly drawn) [Compound 77, 1-((R)-3-(3,4-dihydroisoquinolin-2(1H)-yl)-2-hydroxypropyl)-3-((5-(tetrahydro-2H-pyran-3-yl)pyridin-2-yl)methyl)imidazolidin-2-one] | 100 to 300
6 | CC(=O)N1CCN(c2ccc(CN3CCN(CC(O)CN4CCn5nccc5C4)C3=O)nc2)CC1 (centres unmarked) [Compound 85, 1-((5-(4-acetylpiperazin-1-yl)pyridin-2-yl)methyl)-3-(3-(6,7-dihydropyrazolo[1,5-a]pyrazin-5(4H)-yl)-2-hydroxypropyl)imidazolidin-2-one] | > 300
7 | CN1CCC(c2ccc(CN3CCN(C[C@H](O)CN4CCc5ccccc5C4)C3=O)nc2)CC1 [Compound 47, (R)-1-(3-(3,4-dihydroisoquinolin-2(1H)-yl)-2-hydroxypropyl)-3-((5-(1-methylpiperidin-4-yl)pyridin-2-yl)methyl)imidazolidin-2-one] | 100 to 300
8 | O=C1N(Cc2ccc(C3CC4CCC(C3)O4)nc2)CCN1C[C@H](O)CN1CCc2ccccc2C1 (stereo partly drawn) [Compound 74, 1-((6-(8-oxabicyclo[3.2.1]octan-3-yl)pyridin-3-yl)methyl)-3-((R)-3-(3,4-dihydroisoquinolin-2(1H)-yl)-2-hydroxypropyl)imidazolidin-2-one] | < 100

Source: US11542275B2, “Substituted imidazolidin-2-one derivatives as PRMT5 inhibitors” (Aurigene Discovery Technologies Limited, priority 2018, dated 2023)
